# From patent US20250223354A1 (BIOTHEUS, published 2025)
# T1: cynomolgus PVRIG overexpressed on CHO cells (cynomolgus, UniProt A0A2K5WVV8 1-322)
# T1 construct: whole, on cells; also called CHO-cynoPVRIG cells
# T1 sequence: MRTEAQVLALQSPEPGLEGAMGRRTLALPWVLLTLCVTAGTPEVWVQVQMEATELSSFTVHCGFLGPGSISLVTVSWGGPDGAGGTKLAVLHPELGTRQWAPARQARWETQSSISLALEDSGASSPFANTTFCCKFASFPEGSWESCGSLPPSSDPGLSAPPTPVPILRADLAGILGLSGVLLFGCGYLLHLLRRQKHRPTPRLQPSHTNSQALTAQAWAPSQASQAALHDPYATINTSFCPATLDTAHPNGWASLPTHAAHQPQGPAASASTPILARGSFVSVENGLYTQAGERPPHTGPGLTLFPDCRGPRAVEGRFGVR
# T2: cynomolgus monkey PVRIG-Fc protein (cynomolgus monkey, UniProt Q6DKI7 41-171 (human entry), limits assumed)
# T2 construct: no signal peptide limits stated; Bivalent antigen; also called Cynomolgus PVRIG-hFc; not shown: human Fc (hFc)
# T2 chain: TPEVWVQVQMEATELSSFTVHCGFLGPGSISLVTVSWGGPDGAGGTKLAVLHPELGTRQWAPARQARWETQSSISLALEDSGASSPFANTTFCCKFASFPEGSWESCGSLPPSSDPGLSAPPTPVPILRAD
# T3: human PVRIG-his protein (human, UniProt Q6DKI7 41-171, limits assumed)
# T3 construct: not shown: his tag
# T3 sequence: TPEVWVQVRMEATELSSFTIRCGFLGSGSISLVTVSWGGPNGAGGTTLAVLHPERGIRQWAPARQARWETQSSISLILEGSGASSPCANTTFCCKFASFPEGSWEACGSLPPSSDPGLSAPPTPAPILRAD
# T4: human PVRIG expressed on cells (human, UniProt Q6DKI7 41-326)
# T4 construct: whole, on cells; cDNA encoding human PVRIG in pCHO1.0 for CHO cells; also called CHO-huPVRIG cells
# T4 sequence (looked up): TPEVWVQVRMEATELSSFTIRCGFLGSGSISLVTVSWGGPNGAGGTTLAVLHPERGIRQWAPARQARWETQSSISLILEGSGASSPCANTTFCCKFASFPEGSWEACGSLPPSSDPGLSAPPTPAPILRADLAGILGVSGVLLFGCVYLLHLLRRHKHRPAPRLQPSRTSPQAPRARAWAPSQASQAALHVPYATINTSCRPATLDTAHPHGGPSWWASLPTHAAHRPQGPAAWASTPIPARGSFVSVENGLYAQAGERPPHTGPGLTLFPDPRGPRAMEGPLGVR
# T5: mouse TIGIT overexpressed on CHO cells (mouse, UniProt P86176 29-249)
# T5 construct: whole, on cells; also called CHO-muTIGIT cells
# T5 sequence (looked up): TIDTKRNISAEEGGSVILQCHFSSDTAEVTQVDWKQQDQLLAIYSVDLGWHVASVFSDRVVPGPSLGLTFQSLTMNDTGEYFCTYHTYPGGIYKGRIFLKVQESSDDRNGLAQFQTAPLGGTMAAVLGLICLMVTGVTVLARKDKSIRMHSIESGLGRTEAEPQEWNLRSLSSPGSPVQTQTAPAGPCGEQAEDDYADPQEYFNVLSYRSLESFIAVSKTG
# T6: human PVRIG protein with mouse IgG2a Fc tag (human; mouse, UniProt Q6DKI7 41-171, limits assumed)
# T6 construct: Whole entry named; not shown: mouse IgG2a Fc tag
# T6 sequence (looked up): T3 sequence
# T7: human PVRIG protein (coated, co-binding ELISA) (human, UniProt Q6DKI7 41-171, limits assumed)
# T7 construct: Whole entry named
# T7 sequence (looked up): T3 sequence
# T8: mouse PVRIG overexpressed on CHO cells (mouse, UniProt A0A1B0GS01 1-234)
# T8 construct: also called CHO-muPVRIG cells
# T8 sequence: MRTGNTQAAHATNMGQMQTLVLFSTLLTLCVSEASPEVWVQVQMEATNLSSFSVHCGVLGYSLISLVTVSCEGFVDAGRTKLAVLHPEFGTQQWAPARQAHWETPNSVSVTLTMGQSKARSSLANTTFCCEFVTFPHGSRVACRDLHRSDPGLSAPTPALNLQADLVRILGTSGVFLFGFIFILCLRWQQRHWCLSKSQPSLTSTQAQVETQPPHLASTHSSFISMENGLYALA
# B1: anti-TIGIT-anti-PVRIG bispecific antibody TP-003-009 (bispecific antibody)
# heavy: QVQLVQSGAEVKKPGSSVKVSCKASGGTESVDAISWVRQAPGQGLEWMGDIIPFFDTDYAQKFQGRVTITADESTSTAYMELSSLRSEDTAVYYCAREGGTSWTHFFDLWGRGTLVTVSSASTKGPSVFPLAPSSKSTSGGTAALGCLVKDYFPEPVTVSWNSGALTSGVHTFPAVLQSSGLYSLSSVVTVPSSSLGTQTYICNVNHKPSNTKVDKKV[human IgG1 Fc not given here]GGGSGGGGSGQLQLQESGPGLVKPAETLSLTCTVSGGSISSYDHYWTWIRQPPGKCLEWIGTVYYSGSTFHNPSLKSRVTIPVDTSKNQFSLKLSSVTAADTAVYYCARVGPDVSHPPFDYWGQGTLVTVSSGGGGSGGGGSGGGGSGGGGSG[about 100 residues not given here]
# light: [about 200 residues not given here]
# notes: human IgG1; made in HEK293; also called Anti-TIGIT/PVRIG bispecific antibody TP-003-009
# B2: anti-TIGIT-anti-PVRIG bispecific antibody TP-001-002-003 (bispecific antibody, human IgG1, kappa)
# heavy 1: QVQLVQSGAEVKKPGASVKVSCKASGYAFTGYYMHWVRQAPGQGLEWMGSIIPFSGEANYAQKFQGRVTMTRDTSISTAYMELSRLRSDDTAVYYCARGPGSLDRLWYYYYGMDVWGQGTTVTVSS[human IgG1 constant region with changes not given here]
# heavy 2: QVQLVQSGAEVKKPGSSVKVSCKASGGTESVDAISWVRQAPGQGLEWMGDIIPFFDTDYAQKFQGRVTITADESTSTAYMELSSLRSEDTAVYYCAREGGTSWTHFFDLWGRGTLVTVSSASTKGPSVFPLAPSSKSTSGGTAALGCLVKDYFPEPVTVSWNSGALTSGVHTFPAVLQSSGLYSLSSVVTVPSSSLGTQTYICNVNHKPSNTKVDKKV[human IgG1 Fc with changes not given here]
# light: [about 200 residues not given here]
# notes: human IgG1; made in HEK293; also called Anti-TIGIT/PVRIG bispecific antibody TP-001-002-003
# Legend:
# [1] = molecular target: T1, cynomolgus PVRIG overexpressed on CHO …; experiment: flow cytometry, CHO-cynoPVRIG cells
# [2] = molecular target: T2, cynomolgus monkey PVRIG-Fc protein; experiment: BLI (ForteBio), antibody on AHQ sensor, 100 nM Fc antigen, bivalent, 1:1 model
# human PVRIG-his protein = molecular target: T3, human PVRIG-his protein; experiment: BLI (ForteBio), antibody on AHQ sensor, 100 nM antigen, monovalent, 1:1 model
# [3] = molecular target: T9, cynomolgus monkey TIGIT-his protein (cynomolgus monkey); experiment: as above
# T9 construct: also called Cynomolgus TIGIT-his; not shown: his tag
# [4] = molecular target: T4, human PVRIG expressed on cells; experiment: flow cytometry, CHO-huPVRIG cells
# [5] = molecular target: T5, mouse TIGIT overexpressed on CHO cells; experiment: flow cytometry, CHO-muTIGIT cells
# [6] = molecular target: T6, human PVRIG protein with mouse IgG2a Fc …; experiment: flow cytometry, competition: human PVRIG-mouse IgG2a Fc (1 ug/mL) binding to CHO-huCD112 cells
# [7] = molecular target: T5, mouse TIGIT overexpressed on CHO cells; experiment: flow cytometry, competition with mouse CD155-mouse IgG2a Fc (2 ug/mL) on CHO-muTIGIT cells
# [8] = molecular target: T7, human PVRIG protein (coated, co-binding …); experiment: co-binding (sandwich) ELISA: coated human PVRIG protein, antibody titrated, detected with biotin-labeled TIGIT protein 1 ug/mL and SA-HRP, absorbance 450 nm
# [9] = molecular target: T8, mouse PVRIG overexpressed on CHO cells; experiment: flow cytometry, CHO-muPVRIG cells
# [10] = molecular target: T10, cynomolgus TIGIT overexpressed on CHO cells (cynomolgus, UniProt A0A7N9I9V4 89-312); experiment: flow cytometry, CHO-cynoTIGIT cells
# T10 construct: whole, on cells; also called CHO-cynoTIGIT cells
# [11] = molecular target: T9, cynomolgus monkey TIGIT-his protein; experiment: BLI (ForteBio), antibody on AHQ sensor, 100 nM antigen, monovalent; W.B = weak binding
# T9 sequence (chain, as listed by the source): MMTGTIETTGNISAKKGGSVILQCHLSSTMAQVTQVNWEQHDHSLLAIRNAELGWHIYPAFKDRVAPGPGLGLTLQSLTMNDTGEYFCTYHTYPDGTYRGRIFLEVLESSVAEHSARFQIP
# T10 sequence (A0A7N9I9V4 entry or part of it): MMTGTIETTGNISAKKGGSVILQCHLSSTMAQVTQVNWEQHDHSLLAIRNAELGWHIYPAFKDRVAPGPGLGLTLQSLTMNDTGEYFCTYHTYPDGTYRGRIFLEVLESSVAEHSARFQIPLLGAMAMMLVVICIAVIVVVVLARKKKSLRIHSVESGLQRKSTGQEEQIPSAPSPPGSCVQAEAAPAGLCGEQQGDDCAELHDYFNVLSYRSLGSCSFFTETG
Binder,EC50 [1] [nM],Kd [2] [nM],Kd (human PVRIG-his protein) [nM],Kd [3] [nM],EC50 [4] [nM],EC50 [5] [nM],IC50 [6] [nM],IC50 [7] [nM],EC50 (read off the curve) [8] [nM],EC50 [9] [nM],EC50 [10] [nM],binding result [5],binding result [11]
B1,0.758,0.236,0.102,29,2.03,8.06,0.988,3.48,~0.3,3.63,3.5,,
B2,1.72,0.31,0.0747,,3.11,,2,,~0.6,172,60.5,no binding,binds
